Experimental data: PubChem BioAssay AID894 (National Center for Advancing Translational Sciences (NCATS), 2007)
“And” between values parts separate entries of the source, which are not always exact repeats. Equal entries are not always repeated. The whole screen tested about 150,000 compounds, of which about 6,500 (4.3%) were called active. Inconclusive results (about 12%) are left out. The call rests on the fitted dose curve; in most records, active means well fitted inhibition curve with a large enough effect (not every such curve was filed as active); inconclusive means small, poorly fitted or top-dose-only effect, or another doubt; inactive means no such curve, though single readings can be large or run the other way. The entries are a selection whose mix differs from that of the whole data set. Some compounds were tested as several samples or in several runs, with calls that do not always agree.

molecular target: 15-hydroxyprostaglandin dehydrogenase [NAD(+)] (Homo sapiens) (UniProt P15428); assay: qHTS Assay for Inhibitors of HPGD (15-Hydroxyprostaglandin Dehydrogenase); conditions: purified HPGD, NADH fluorescence kinetic, PGE2 substrate; activity change, negative = inhibition: active compounds read low
Description: Human 15-Hydroxyprostaglandin dehydrogenase (HPGD) catalyzes the inactivation of prostaglandin E2, and plays a major role in cancer biology by antagonizing the oncogenic potential of cyclooxygenase type 2 (COX2). Assays are available, based on absorbance/fluorescence increase of NADH with the substrate 15-OH prostaglandin E2. References 1. Myung SJ, Rerko RM, Yan M, Platzer P, Guda K, Dotson A, Lawrence E, Dannenberg AJ, Lovgren AK, Luo G, Pretlow TP, Newman RA, Willis J, Dawson D, Markowitz SD. 15-Hydroxyprostaglandin dehydrogenase is an in vivo suppressor of colon tumorigenesis. […] 2. Yan M, Rerko RM, Platzer P, Dawson D, Willis J, Tong M, Lawrence E, Lutterbaugh J, Lu S, Willson JK, Luo G, Hensold J, Tai HH, Wilson K, Markowitz SD. 15-Hydroxyprostaglandin dehydrogenase, a COX-2 oncogene antagonist, is a TGF-beta-induced suppressor of human gastrointestinal cancers. Proc Natl Acad Sci U S A. 2004 Dec 14;101(50):17468-73. 3. Yang L, Amann JM, Kikuchi T, Porta R, Guix M, Gonzalez A, Park KH, Billheimer D, Arteaga CL, Tai HH, Dubois R, Carbone DP, Johnson DH. Inhibition of Epidermal Growth Factor Receptor Signaling Elevates 15-Hydroxyprostaglandin Dehydrogenase in Non-Small-Cell Lung Cancer. Cancer Res. 2007 Jun 15;67(12):5587-5593. Inhibition of HPGD activity was screened by utilizing prostaglandin as an electron donor and NAD+ as an electron acceptor/cofactor. An increase in the fluorescence intensity due to conversion of NAD+ to NADH was used to measure the enzyme activity. NIH Chemical Genomics Center [NCGC] Structural Genomics Consortium [SGC]
Buffer: 50 mM Tris-HCl, 0.01% Tween 20, pH 8. Enzyme Buffer: 50 mM Tris-HCl, 0.5 mM NAD+ and 0.01% Tween 20, pH 8. Reagents/Controls: Buffer in columns 3 and 4 as negative control (no enzyme). Substrate/cofactor solution: 1 mM NAD+ and 30 uM prostaglandin (Sigma, prostaglandin E2, # P5640) final concentrations dispensed throughout the plate. Enzyme: 20 nM HPGD final concentration in columns 1, 2, 5-48. Column 1 and 2 is neutral (100% activity). A titration of control inhibitor GW5074 (G6416 Sigma-Aldrich, St. Louis, MO) top concentration 10 mM in DMSO, then 1:2 dilution for a total of 16 concentrations in duplicate) was pin-transferred into column 2. Assay Steps: Three uL of enzyme were dispensed to 1536-well Greiner black solid bottom plates. Compounds and control inhibitor (23 nL) were transferred via Kalypsys PinTool. The plates were incubated for 15 min at room temperature, and then 1 uL of substrate/cofactor solution was added to start the reaction. The plates were immediately transferred to and read 5 times every 30 seconds on ViewLux High-throughput CCD imager (Perkin-Elmer) using 360 nm excitation and 450 nm emission fluorescence protocol. The fluorescence intensity difference between the last and the first time points was used to compute reaction progress.
On the % scale 0 is the no-effect control and ±100 the full control effect; potency means the concentration at half of the fitted maximal effect.

Sequence of UniProt P15428 (P15428 whole entry, looked up): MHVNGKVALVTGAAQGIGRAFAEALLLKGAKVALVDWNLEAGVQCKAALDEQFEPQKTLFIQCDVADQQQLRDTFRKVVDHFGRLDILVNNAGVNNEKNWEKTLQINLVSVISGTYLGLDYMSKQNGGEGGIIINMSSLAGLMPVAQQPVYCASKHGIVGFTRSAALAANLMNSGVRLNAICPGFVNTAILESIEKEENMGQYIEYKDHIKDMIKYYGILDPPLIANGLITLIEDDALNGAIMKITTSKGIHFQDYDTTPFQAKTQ

Structure (SMILES) | activity change, negative = inhibition | Potency
CNC(C)[C@@H](O)c1ccccc1 (stereo partly specified) | inactive: -7.34% | –
CC(C)c1cccc(C(C)C)c1O | inactive: -2.36% [middle of 4 runs] | –
CCCCC[CH2][Hg][S]C1=C2N=CNC2NC(N)=N1 (stereo unspecified) | – | active: 0.708 µM
N=C(N)SCc1ccc(Cl)c2ccccc12 (tested in a mixture with another compound) | inactive: -10.4% | –
O=C(O)CNC(=O)C(CS)Cc1ccccc1 (stereo unspecified) | inactive: -13.3% | –
O=C(O)c1ccccc1Nc1cccc(C(F)(F)F)c1 | inactive: -12.3% and inactive: -17.9% | –
CCOC(=O)C1=C(C)NC(C)=C(C(=O)OC)C1c1cccc(Cl)c1Cl (stereo unspecified) | inactive: -19.6% and inactive: -13.7% | –
COc1ccc(-c2nc3ccccc3n2OC(=O)N(C)C)cc1 | inactive: 77.6% | –
NC(N)=Nc1ccc2[nH]c3c(c2c1)C[C@]1(O)[C@@H]2Cc4ccc(O)c5c4[C@]1(CCN2CC1CC1)[C@@H]3O5 | inactive: -13.9% | –
CN(C)C(=O)On1c(-c2ccccc2)nc2ccc(Cl)cc21 | inactive: 124% | –
c1ccc2c(c1)[nH]c1cnccc12 | inactive: -7.11% | –
COc1cc(-c2ccc(=O)[nH]n2)ccc1OC(F)F | inactive: -21% | –
CCCCCCCCC(=O)NCc1ccc(O)c(OC)c1 | inactive: -5.36% | –
CCCCC/C=C\C/C=C\C/C=C\C/C=C\CCCC(=O)O | inactive: -3.23% | –
CCCSc1ccc2nc(NC(=O)OC)[nH]c2c1 | inactive: -19.4% and inactive: -22.8% | –
O=C1/C(=C/c2cc3c(cc2Cl)OCO3)N2CCC1CC2 | – | active: 22.4 µM
O=c1c(O)c(-c2ccc(O)c(O)c2)oc2cc(O)cc(O)c12 | inactive: -25.3% and inactive: -12.4% and inactive: -26% | –
CCCN1CCO[C@@H]2c3cc(O)ccc3OC[C@H]21 | inactive: -7.05% and inactive: -3.01% | –
Brc1c(NC2=NCCN2)ccc2nccnc12 | – | active: 22.4 µM
C=CCN1C(=O)/C(=C\c2ccc(N3CCOCC3)o2)C(=O)NC1=S | inactive: -23.1% | –
COC(=O)NC(=S)Nc1ccccc1NC(=S)NC(=O)OC | inactive: -14.7% | –
CC(C)(c1ccc(O)cc1)c1ccc(O)cc1 | inactive: -6.47% | –
Cc1c(O)c(O)cc2c1CC=C1[C@]3(C)CC[C@]4(C)CC[C@@](C)(C(=O)O)CC4[C@]3(C)CC[C@]12C (stereo partly specified) | – | active: 17.8 µM
COc1ccc(OCCn2cc(/C=C(\C#N)C(=O)NCc3ccco3)c3ccccc32)cc1 | inactive: 396% | –
CNCCC(Oc1ccc(C(F)(F)F)cc1)c1ccccc1 (stereo unspecified) | inactive: 1.58% and inactive: -7.49% and inactive: 6.79% | –
Clc1ccc(C(c2ccc(Cl)cc2)C(Cl)(Cl)Cl)cc1 | inactive: -8.03% | –

Structure (SMILES) | activity change, negative = inhibition | Potency
CC[C@H]1CN2CCc3cc(OC)c(OC)cc3[C@H]2C[C@@H]1C[C@@H]1NCCc2cc(OC)c(OC)cc21 | inactive: -7.55% | –
O=c1cc(-c2ccc(O)c(O)c2)oc2cc(O)cc(O)c12 | inactive: -28.8% | –
CN(C)c1ccc(/C=C2/C(=O)NC(=O)N(Cc3ccco3)C2=O)cc1 | – | active: 10 µM
CCn1cc(C(=O)O)c(=O)c2cc3c(cc21)OCO3 | inactive: -13.5% and inactive: -7.71% and inactive: -12.4% | –
Cc1ccc(-c2nc3ccc(Cl)cc3n2OC(=O)N(C)C)cc1 | inactive: 37.3% | –
C=C(C)[C@H]1Cc2c(ccc3c2O[C@@H]2COc4cc(OC)c(OC)cc4[C@@H]2C3=O)O1 | inactive: 0.318% and inactive: -12.3% | –
CN(N=O)c1cc(O)ccc1O | – | active: 14.1 µM
Nc1nc(=S)c2ncn([C@H]3O[C@@H](CO)[C@@H](O)[C@@H]3O)c2[nH]1 | inactive: -16.3% | –
O=c1[nH]c(=O)n(CCC2=CCCCC2)c(O)c1C=Nc1cccc(F)c1 | inactive: 31.1% | –
CC[C@H]1CN2CCc3cc(OC)c(OC)cc3[C@@H]2C[C@@H]1C[C@H]1NCCc2cc(OC)c(OC)cc21 | inactive: -7.73% and inactive: -5.8% | –
CNC(C)C(O)c1ccccc1 (stereo unspecified) | inactive: -1.93% | –
CN[C@@H]1C[C@H]2O[C@@](C)([C@@H]1OC)n1c3ccccc3c3c4c(c5c6ccccc6n2c5c31)C(=O)NC4 | inactive: -25.7% | –
Cc1ccc(C(=O)c2ccc(CC(=O)O)n2C)cc1 | inactive: -25.9% | –
CC1CCCC(=O)CCC/C=C/c2cc(O)cc(O)c2C(=O)O1 (stereo unspecified) | inactive: -21.5% | –
NC(N)=NC(=O)c1nc(Cl)c(N)nc1N | inactive: -25% | –
CNCC[C@@H](Oc1ccc(C(F)(F)F)cc1)c1ccccc1 | inactive: -11.7% | –
c1ccc2cc3c(cc2c1)-c1cccc2cccc-3c12 | inactive: 45.6% | –
NC1CC1c1ccccc1 (stereo unspecified) | inactive: -3.59% | –
COc1cc(-n2c(=S)[nH]c3ccccc3c2=O)c(Cl)cc1Cl | inactive: 77.6% | –
C[C@@H]1CC[C@H]2[C@@H](C)C(=O)O[C@@H]3OC4(C)CC[C@@H]1[C@]32OO4 | inactive: -7.73% | –
Cc1ccc(-n2c(/C=C/c3ccc4c(c3)OCO4)nc3ccccc3c2=O)cc1 | inactive: 99% | –
CCCC/C(C)=C/[C@@H](NP(=O)(c1ccccc1)c1ccccc1)c1ccccc1 | inactive: -13.8% | –
Nc1nc(N)c2nc(CNc3ccc(C(=O)NC(CCC(=O)O)C(=O)O)cc3)cnc2n1 (stereo unspecified) | inactive: -26.6% | –
CC(C(=O)O)c1ccc(-c2ccccc2)c(F)c1 (stereo unspecified) | inactive: -25.2% and inactive: -27.6% | –
CCN(CC)c1ccc(/C=C2\C(=O)NC(=O)N(Cc3ccco3)C2=O)cc1 | – | active: 15.8 µM
